{
  "source": "paper PMC6919601",
  "about": "“Identification of Plasmodium dipeptidyl aminopeptidase allosteric inhibitors by high throughput screening” (PLoS ONE, 2019)",
  "note": "Among all 110,000 compounds or so, about 230 (0.21%) showed an effect of 50% or more. Some of the results follow.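 Note: 30 min substrate incubation versus DMSO and 10 µM JCP410 controls.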",
  "data": [
    {"target": "DPAP1 (Plasmodium falciparum, UniProt Q8IIJ9)", "sequence (Q8IIJ9 whole entry, looked up)": "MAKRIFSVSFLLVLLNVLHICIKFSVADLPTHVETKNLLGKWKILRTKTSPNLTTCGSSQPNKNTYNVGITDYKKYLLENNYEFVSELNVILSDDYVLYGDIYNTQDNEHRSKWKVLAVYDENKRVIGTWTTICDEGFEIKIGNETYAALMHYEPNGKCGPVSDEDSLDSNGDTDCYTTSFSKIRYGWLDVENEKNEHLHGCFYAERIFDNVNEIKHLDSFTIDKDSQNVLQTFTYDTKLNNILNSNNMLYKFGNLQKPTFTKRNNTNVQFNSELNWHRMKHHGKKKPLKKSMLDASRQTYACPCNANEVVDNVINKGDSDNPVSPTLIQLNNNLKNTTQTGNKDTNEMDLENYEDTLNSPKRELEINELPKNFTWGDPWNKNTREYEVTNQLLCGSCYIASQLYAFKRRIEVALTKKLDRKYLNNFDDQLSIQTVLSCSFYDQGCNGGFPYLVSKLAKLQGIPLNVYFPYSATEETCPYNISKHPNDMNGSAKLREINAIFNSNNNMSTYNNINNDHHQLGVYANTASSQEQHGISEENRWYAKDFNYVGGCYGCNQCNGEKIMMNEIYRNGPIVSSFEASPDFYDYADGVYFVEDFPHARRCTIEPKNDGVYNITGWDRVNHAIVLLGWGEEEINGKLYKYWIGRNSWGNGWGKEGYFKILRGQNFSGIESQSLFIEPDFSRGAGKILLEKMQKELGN", "assay": "primary screen, percent inhibition; read by cleavage of a fluorogenic dipeptide substrate; higher = more effect of the substance", "design": "species or system P. falciparum D10 trophozoite lysates; single well", "units": {"% Inhibition @ 10 uM": "%"}, "values": [
      {"smiles": "CC(C)CC(NC(=O)C1CCCCC1)C(=O)NC(C)c1ccccc1", "note": "(centres unmarked)", "% Inhibition @ 10 uM": -3.27},
      {"smiles": "Cn1c2c(c(=O)n(C)c1=O)C(c1ccccc1)C1=C(O)c3ccccc3C1=N2", "note": "(centres unmarked)", "% Inhibition @ 10 uM": 0.751},
      {"smiles": "O=C(c1ccccc1)N1CCN(CC(O)Cn2c3ccccc3c3ccccc32)CC1", "note": "(centres unmarked)", "% Inhibition @ 10 uM": 1.96},
      {"smiles": "COc1ccc(-c2nc(CS(=O)(=O)CC(=O)NCCCN3CCCC3=O)c(C)o2)cc1", "% Inhibition @ 10 uM": -11.6},
      {"smiles": "CN(CCCNC(=O)c1nc(-c2cccc(F)c2)n2c1CCCCC2)Cc1ccccc1", "% Inhibition @ 10 uM": 3.22},
      {"smiles": "CCOc1ccccc1CNc1nc[nH]n1", "% Inhibition @ 10 uM": -1.81},
      {"smiles": "Cc1cc(=O)n2nc(NC(C)C(=O)NCc3ccccc3Cl)sc2n1", "note": "(centres unmarked)", "% Inhibition @ 10 uM": -7.02},
      {"smiles": "O=C(O)C1C2C=CC(C2)C1C(=O)NC1CCCC1", "note": "(centres unmarked)", "% Inhibition @ 10 uM": -2.83},
      {"smiles": "COc1cccc(C(=O)Nc2ccc3[nH]c4c(c3c2)CCCC4)c1", "% Inhibition @ 10 uM": -3.16},
      {"smiles": "O=S(=O)(Nc1ccccc1)c1cc(S(=O)(=O)c2ccc(Cl)c(S(=O)(=O)Nc3ccccc3)c2)ccc1Cl", "% Inhibition @ 10 uM": 3.25},
      {"smiles": "Cc1cc(/C=C2\\C(=N)N3N=C(N4CCCC4)SC3=NC2=O)c(C)n1Cc1ccccc1", "% Inhibition @ 10 uM": 4.88},
      {"smiles": "C=CCN1C(=O)N/C(=C/c2ccccc2OCC(=O)Nc2ccc(F)cc2)C1=O", "% Inhibition @ 10 uM": 8.13},
      {"smiles": "Cc1n[nH]c(C)c1CCCCCOc1cccc(Cl)c1", "% Inhibition @ 10 uM": -3.42},
      {"smiles": "CCOC(=O)N1CCN(S(=O)(=O)Cc2ccccc2)CC1", "% Inhibition @ 10 uM": -1.03},
      {"smiles": "CCOc1ccccc1CN1CCc2ccccc2C1", "% Inhibition @ 10 uM": -7.5},
      {"smiles": "C=CCn1c(SCC(=O)O)nnc1-c1ccc(OC)c(OC)c1", "% Inhibition @ 10 uM": -7.65},
      {"smiles": "O=C(NCc1ccc(Cl)cc1)C1CCN(S(=O)(=O)c2cc(Cl)ccc2Cl)CC1", "% Inhibition @ 10 uM": 7},
      {"smiles": "CCCN1CCC(NCC(C)(C)CN(C)C)CC1", "% Inhibition @ 10 uM": -5.44},
      {"smiles": "O=C(Nc1ccc(NC(=O)C2CC2)cc1)C1CC1", "% Inhibition @ 10 uM": 2.13},
      {"smiles": "CC(C)CC(=O)N1CC(C)N(C(=O)CC(C)C)CC1C", "note": "(centres unmarked)", "% Inhibition @ 10 uM": -4.59},
      {"smiles": "CCCS(=O)(=O)N1CCCC(C(=O)NCCCN2CCC(Cc3ccccc3)CC2)C1", "note": "(centres unmarked)", "% Inhibition @ 10 uM": -3.58},
      {"smiles": "Cc1cccc(Oc2ccc(NC(=O)CCCC(=O)O)cc2)c1", "% Inhibition @ 10 uM": 8.4},
      {"smiles": "O=C(Nc1nc2nc(-c3ccccc3)cc(O)n2n1)c1ccccc1F", "% Inhibition @ 10 uM": -4.91},
      {"smiles": "Cc1ccc(NC(=O)/C=C/C(=O)O)c([N+](=O)[O-])c1", "% Inhibition @ 10 uM": -1.97},
      {"smiles": "CCOc1ccccc1NC(=O)c1ccc(OC(F)F)cc1", "% Inhibition @ 10 uM": -0.116},
      {"smiles": "OCCN(/C=N/C1=NN(c2ccccc2)CC1)CCO", "% Inhibition @ 10 uM": -0.0938},
      {"smiles": "CCC(C#CCN1CCCCC1)OC(C)=O", "note": "(centres unmarked)", "% Inhibition @ 10 uM": 0.98},
      {"smiles": "O=C(c1cccc2cccc(O)c12)N1CCCCC1", "% Inhibition @ 10 uM": -3.14},
      {"smiles": "S=C1NC2(CCCCC2)N=C1c1ccccc1", "% Inhibition @ 10 uM": 11.4},
      {"smiles": "CSc1ccc(CN2CCN(c3ccc(F)cc3)CC2)cc1", "% Inhibition @ 10 uM": -0.0404},
      {"smiles": "Cn1c2c(c(=O)n(C)c1=O)CN(Cc1ccc(F)cc1)CN2", "% Inhibition @ 10 uM": 0.66},
      {"smiles": "CN(C)CC(C)(C)CNC1CC2CCC1C2", "note": "(centres unmarked)", "% Inhibition @ 10 uM": -2.21},
      {"smiles": "CN(C)CN1C(=O)S/C(=C/c2ccccc2Br)C1=O", "% Inhibition @ 10 uM": -0.171},
      {"smiles": "O=C(Cc1ccccc1)Nc1nn2c(-c3ccccc3)nnc2s1", "% Inhibition @ 10 uM": 0.522},
      {"smiles": "Cc1ccc(C)c(N(CC(=O)Nc2cccnc2)S(C)(=O)=O)c1", "% Inhibition @ 10 uM": 5.59},
      {"smiles": "CSc1ccc(CN2CCN(CCO)CC2)cc1", "% Inhibition @ 10 uM": 2.46},
      {"smiles": "Cc1c(Cl)cccc1N/C=C(\\C#N)C(=O)NC(=O)c1ccccc1", "% Inhibition @ 10 uM": -1.06},
      {"smiles": "COc1cccc(CSc2nc3nccnc3c(=O)n2Cc2ccccc2)c1", "% Inhibition @ 10 uM": -1.87},
      {"smiles": "Cc1ccc(-c2nc3nc(C)c(Cl)c(C)n3n2)cc1", "% Inhibition @ 10 uM": -2.4},
      {"smiles": "O=C(c1cccc(Cl)c1)N1CCN(Cc2ccccc2)CC1", "% Inhibition @ 10 uM": 1.13},
      {"smiles": "COc1ccc(/C(O)=C/C=N/c2cccc3cccnc23)cc1", "% Inhibition @ 10 uM": 2.46},
      {"smiles": "Cn1c(=O)c2c(-c3ccccc3)n(-c3ccccc3N)cc2n(C)c1=O", "% Inhibition @ 10 uM": -2.77},
      {"smiles": "COc1ccc2c(=O)c(-c3ccc4c(c3)OCCO4)c(C)oc2c1", "% Inhibition @ 10 uM": 1.87},
      {"smiles": "Cc1cc(C)n(CNc2nc(C(F)(F)F)cs2)n1", "% Inhibition @ 10 uM": 3.27},
      {"smiles": "CCCC[C@H](NC(=O)[C@H](Cc1ccc2ccccc2c1)NC(=O)c1cccc(CN)c1)C(=O)CO", "% Inhibition @ 10 uM": -5.64},
      {"smiles": "COc1cccc2cc(-c3nc(-c4ccncc4)no3)c(=O)oc12", "% Inhibition @ 10 uM": -0.264},
      {"smiles": "COCCNC(=O)c1cc(-c2ccc(Br)cc2)nc2ccccc12", "% Inhibition @ 10 uM": 2.87},
      {"smiles": "CCc1ccc(C2c3c(-c4ccccc4O)n[nH]c3C(=O)N2CCO)cc1", "note": "(centres unmarked)", "% Inhibition @ 10 uM": -1.35},
      {"smiles": "COC(=O)C1=C(O)/C(=C\\c2ccc(OC)cc2)N=C1C", "% Inhibition @ 10 uM": -2.48},
      {"smiles": "c1ccc(C2CCC(NCCc3ccccn3)CC2)cc1", "note": "(centres unmarked)", "% Inhibition @ 10 uM": 3.48},
      {"smiles": "CN(C)c1nc(F)c(F)c(S(=O)(=O)c2ccccc2)c1F", "% Inhibition @ 10 uM": -4.67},
      {"smiles": "CCCOc1ccc2c(c1)C(=NN=C(N)N)c1cc(OCCC)ccc1-2", "% Inhibition @ 10 uM": -2.27},
      {"smiles": "CCOc1ccc(C2CC(=O)NC2=O)cc1", "note": "(centres unmarked)", "% Inhibition @ 10 uM": 0.774},
      {"smiles": "C=CCn1c(=N)c(C(=O)OCC)cc2c(=O)n3cc(C)ccc3nc21", "% Inhibition @ 10 uM": 0.279},
      {"smiles": "COc1cc(C2c3c(-c4ccccc4O)n[nH]c3C(=O)N2Cc2ccco2)cc(OC)c1OC", "note": "(centres unmarked)", "% Inhibition @ 10 uM": 5.17},
      {"smiles": "CCOc1ccc(-c2nnc(NC(=O)C(=O)c3cc(C)n(CCOC)c3C)s2)cc1", "% Inhibition @ 10 uM": -1.06},
      {"smiles": "O=C(NCCc1ccsc1)c1cnn(-c2ccc(F)cc2F)c1C1CCNCC1", "% Inhibition @ 10 uM": -3.45},
      {"smiles": "Cc1[nH]nc2c1C(c1cccc(Cl)c1Cl)C(C#N)=C(N)O2", "note": "(centres unmarked)", "% Inhibition @ 10 uM": -0.142},
      {"smiles": "N#Cc1ccc(-c2cccnc2)nc1SCCOC1CCCCO1", "note": "(centres unmarked)", "% Inhibition @ 10 uM": 0.343},
      {"smiles": "CC(C)Cn1c(=O)c2ccccc2n2c(-c3ccc(Cl)cc3)nnc12", "% Inhibition @ 10 uM": -3.51},
      {"smiles": "COc1ccc(CCNC(=O)CSc2cc(Cl)nc3ccc(C)cc23)cc1OC", "% Inhibition @ 10 uM": 1.08},
      {"smiles": "O=C(Cc1ccc(F)cc1F)Nc1ccc(F)cc1", "% Inhibition @ 10 uM": -0.414},
      {"smiles": "COc1ccc(-c2cn3c(n2)sc2cc(C(=O)NCc4cccnc4)ccc23)cc1", "% Inhibition @ 10 uM": 3},
      {"smiles": "O=C1OC(c2ccccc2)OC(=O)C1=Cc1ccc(-c2cccc(C(=O)O)c2)o1", "note": "(centres unmarked)", "% Inhibition @ 10 uM": 35},
      {"smiles": "Cc1ccc(S(=O)(=O)N2CCN(CC(O)COc3ccc4ccccc4c3)CC2)cc1", "note": "(centres unmarked)", "% Inhibition @ 10 uM": 7.04}
    ]}
  ]
}
